The values that follow come from PubChem BioAssay AID1963428 (Molecular Pharmacology Branch, DTP, NCI, 2024).

For this assay, the system named is 171881-019-R-J1-PDC complex spheroid growth, % test/control. Nature of the assay: Anticancer human tumor 171881-019-R-J1-PDC patient-derived invasive breast carcinoma cell line growth inhibition [Asc]. As to conditions: stronger effect = lower value. As for the experimental part:
Multicellular complex tumor spheroid response to apoptosis pathway targeting inhibitors Alrizomadlin, Pelcitoclax, and Dasminapant in combination with a variety of drugs and investigational agents in selected tumor cell lines
The MDM2 inhibitor alrizomadlin, the Bcl-2/Bcl-xL inhibitor pelcitoclax, and the IAPs inhibitor dasminapant were evaluated both individually and in combination with standard of care and investigational anticancer small molecules within a complex spheroid model of solid tumors. . Complex spheroids include a stromal component modeled by human endothelial cells (HUVEC) and fibroblasts modeled by human mesenchymal stem cells (MSCs). The concentration ranges selected for each drug and investigational agent were based upon clinically achievable concentrations if the clinical Cmax of the agent was known.
Compounds. The drugs and investigational agents: alrizomadlin (APG-115; NSC831270), pelcitoclax (APG-1252; NSC835773), dasminapant (APG-1387;NSC834197), TAK-243 (NSC785004), copanlisib (NSC809693), olaparib (NSC753686), talazoparib (NSC767125), cobimetinib (NSC 768068), eltanexor (KPT-8602, NSC 794443), abemaciclib (NSC 768073), sotorasib (NSC818433), adagrasib (NSC 831453), MRTX-1133 (NSC 836407), Iadademestat (ORY1001, NSC 806812), and RMC-4630 (NSC839698), were obtained from the NCI Developmental Therapeutics Program Chemical Repository. The FDA-approved anticancer drug set is available from the Developmental Therapeutics Program at https://dtp.cancer.gov/organization/dscb/obtaining/available plates.htm. […] The stock solutions were prepared in dimethyl sulfoxide (DMSO, Sigma-Aldrich, St. Louis, MO, cat. D2650) at 800-fold the tested concentration and stored at -70 degrees C prior to their use. All drugs and investigational agents were tested over a range starting from a high concentration at or near the clinical Cmax and decreasing in half-log increments. If the clinical Cmax for an agent had not been determined, the highest concentration tested was 10 microM.
The patient-derived cancer (PDC) cell lines include five colon adenocarcinomas: 186277-243-T-J2-PDC, 616215-338-R-J1-PDC, 439559-082-T-J2-PDC, 463943-066-T-J2-PDC, and 519858-162-T-J1-PDC; three pancreatic carcinomas: 323965-272-R-J2-PDC, 521955-158-R6-J3-PDC, and 521955-158-R2-J5-PDC; two uterine sarcomas: 327498-152-R-J2-PDC and 993429-296-R-J1-PDC; two rhabdomyosarcomas: 755483-174-R-J1-PDC and 772245-204-R-J1-PDC; two soft tissue sarcomas: 126254-015-R-J1-PDC and 494315-158-R-J1-PDC; two malignant fibrous histiocytomas: 317291-083-R-J1-PDC and 596521-263-R-J1-PDC; two breast carcinomas: 171881-019-R-J1-PDC and 885512-296-R-J2-PDC; and one ovarian carcinoma: 6556581-035-R-J-PDC were obtained from the NCI PDMR, (https://pdmr.cancer.gov). The established cell lines HSSY-2 synovial sarcoma (RRID:CVCL 8719), SYO-1 synovial sarcoma (RRID:CVCL_7146), MPNST malignant peripheral neural sheath tumor were obtained from the Sloan Kettering Institute. The following established cell lines were purchased from the American Type Culture Collection (ATCC, Manassas, VA), Sor the received from the NCI repository:, PANC-1 pancreatic carcinoma (CRL-1469, RRID:CVCL_0480), OVCAR-5 ovarian carcinoma (RRID:CVCL_1628), OVCAR-8 ovarian carcinoma (RRID:CVCL_1629), , MCF-7 breast carcinoma (CRL-12584, RRID:CVCL_0031), MDA-MB-231 breast carcinoma (CRL-12532, RRID:CVCL_0062), NCI-H1876 small cell lung carcinoma (CRL-5902, RRID:CVCL_1503), NCI-H510A small cell lung carcinoma (HTB-184, RRID:CVCL_1565), NCI-H1417 (CRL-5869, RRID:CVCL_1469), and NCI-H196 small cell lung carcinoma (CRL-5823, RRID:CVCL_1509). Dr. Peter Houghton (Greehey Children's Cancer Research Institute, University of Texas Health Science Center, San Antonio, TX) provided Rh-18 rhabdomyosarcoma (RRID:CVCL_1659). Pooled donor human umbilical vein endothelial cells (HUVEC, Lonza, cat. CC-2519) and human mesenchymal stem cells (hMSC, Lonza, cat. PT-2501) were purchased from Lonza (Walkersville, MD).
Cell Culture. […]

Molecules are shown by their SMILES. The source holds more than one record for some entries. The other results are left out here. There may be further records. Values that stand side by side are repeated measurements (runs, samples, wells, individuals or studies). Brackets with × say how often a value occurs here. A date in brackets names the month of the test.
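Further: spheroids exposed to compounds for 7 days.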

For the molecule `CCN1C(C(=O)NC23CCC(C(=O)O)(CC2)CC3)C(c2cccc(Cl)c2F)C2(C(=O)Nc3cc(Cl)ccc32)C12CCCCC2` (configuration not stated), the viability, T/C is 88, 118, 97.5, 90.6, 123, 111, 117, 95.9, 101, 115, 96, 105, 79.7, 87.5% [2022-09] and 90.9% [2022-10] (compound alone 0.03 µM); 96.4, 95.4, 108, 98.6, 96.2, 98.7, 107, 91, 97.6, 102, 96.8, 111, 103, 79.1% [2022-09] and 102% [2022-10] (compound alone 0.0949 µM); 112, 109, 108 (2×), 93.1, 114, 110, 98.7, 106, 95.7, 105, 121, 97, 99.7% [2022-09] and 109% [2022-10] (compound alone 0.3 µM); 110 (3×), 98.7, 98.3, 96, 99.8, 128, 103, 105, 112, 113, 106, 77.8% [2022-09] and 115% [2022-10] (compound alone 0.949 µM); 111, 122, 91.5, 97.2, 104, 119, 115, 90.8, 101, 108, 87.7, 113, 98.7, 82.6% [2022-09] and 114% [2022-10] (compound alone 3 µM).

Turning to `CNC(C)C(=O)NC1CN(S(=O)(=O)c2cccc(S(=O)(=O)N3CCC4CCC(C(=O)NC(c5ccccc5)c5ccccc5)N4C(=O)C(NC(=O)C(C)NC)C3)c2)CCC2CCC(C(=O)NC(c3ccccc3)c3ccccc3)N2C1=O` (configuration not stated), the viability, T/C is, setting by setting: (compound alone 0.01 µM) 95.4%, 86.7% [2022-09] and 94.8, 95.4, 83, 98.7, 107, 89.6, 94 (2×), 79, 106, 94.5, 90.5, 83.5% [2022-10]; (compound alone 0.0316 µM) 98.3%, 100% [2022-09] and 109 (2×), 87.8, 96.5, 87.2, 103, 98.7, 83.1, 95.2, 96.1, 101, 89.9, 95% [2022-10]; (compound alone 0.316 µM) 82.7%, 94.2% [2022-09] and 94, 90.3, 91.4, 88.2, 106, 92.8, 95.2, 82.1, 109 (2×), 88.7, 90.6, 93.4% [2022-10]; (compound alone 1 µM) 97.4%, 79.2% [2022-09] and 86.8, 93.3, 97.7, 97.1, 111, 110, 90.9, 79.3, 93.8, 101, 90.5, 99.5, 102% [2022-10].

As to `Cc1c(S(C)(=O)=O)c(-c2cc(F)cc(N3CCN(c4ccc(NS(=O)(=O)c5ccc(NC(CCN6CCC(C(=O)OCCCP(=O)(O)O)CC6)CSc6ccccc6)c(S(=O)(=O)C(F)(F)F)c5)cc4)CC3)c2)c(-c2ccc(Cl)cc2)n1C(C)C` (configuration not stated), the viability, T/C was 119 (2×), 118, 108, 121 (2×), 117, 91.5, 109, 111 (2×), 124, 98.3, 133% (compound alone 0.316 µM); 155, 128, 135, 122, 125, 132 (3×), 120 (2×), 107, 131, 140, 160% (compound alone 1 µM); 172, 167 (2×), 143, 183, 148, 149, 110, 155, 141, 152, 145, 156, 153% (compound alone 3.16 µM).
